PubChem BioAssay AID256 (DTP/NCI, 2004)
Where “and” joins values, the source holds several entries; their conditions need not be identical. Equal values may be shown once. This continues a long series; more values of the same kind are listed elsewhere. Toxic doses and inconclusive results are not listed.

Tested on: CD2F1 mice, L1210 leukemia ip, survival T/C
Assay: NCI In Vivo Anticancer Drug Screen. Data for tumor model L1210 Leukemia (intraperitoneal) in CD2F1 (CDF1) mice
Conditions: higher = longer survival
Outline: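 Read-out first: treated-group measurement over vehicle-control measurement, expressed as a ratio. Animals bore a transplanted tumor line and were dosed with compound or vehicle.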

O=P1(N(CCCl)CCCl)NCCCO1 (configuration not stated)
T/C (endpoint: mean survival time, dose: 6.25 mg/kg/injection, schedule: Q01DX009 (ip), vehicle: saline): 101 % of control and 111 % of control | T/C (endpoint: mean survival time, dose: 10.0 mg/kg/injection, schedule: Q01DX009 (ip), vehicle: saline): 104 % of control | T/C (endpoint: mean survival time, dose: 12.5 mg/kg/injection, schedule: Q01DX005 (ip), vehicle: water): 109 % of control | T/C (endpoint: mean survival time, dose: 23.3 mg/kg/injection, schedule: Q01DX001 (ip), vehicle: water): 109 % of control | T/C (endpoint: mean survival time, dose: 25.0 mg/kg/injection, schedule: Q01DX001 (ip), vehicle: DMSO): 102 % of control | T/C (endpoint: mean survival time, dose: 25.0 mg/kg/injection, schedule: Q01DX001 (ip), vehicle: other): 104 % of control | T/C (endpoint: mean survival time, dose: 25.0 mg/kg/injection, schedule: Q04DX003 (ip), vehicle: saline): 106 % of control | T/C (endpoint: mean survival time, dose: 31.2 mg/kg/injection, schedule: Q01DX001 (ip), vehicle: water): 108 % of control and 110 % of control | T/C (endpoint: mean survival time, dose: 31.25 mg/kg/injection, schedule: Q01DX001 (ip), vehicle: saline): 106 % of control | T/C (endpoint: mean survival time, dose: 31.3 mg/kg/injection, schedule: Q01DX001 (ip), vehicle: DMSO): 107 % of control | T/C (endpoint: mean survival time, dose: 31.3 mg/kg/injection, schedule: Q01DX001 (ip), vehicle: saline): 106 % of control | T/C (endpoint: mean survival time, dose: 40.0 mg/kg/injection, schedule: Q01DX001 (ip), vehicle: saline): 109 % of control | T/C (endpoint: mean survival time, dose: 50.0 mg/kg/injection, schedule: Q01DX001 (ip), vehicle: other): 109 % of control | T/C (endpoint: mean survival time, dose: 80.0 mg/kg/injection, schedule: Q04DX003 (ip), vehicle: saline): 231 % of control | T/C (endpoint: mean survival time, dose: 100.0 mg/kg/injection, schedule: Q01DX009 (ip), vehicle: saline): 94 % of control and 98 % of control | T/C (endpoint: mean survival time, dose: 100.0 mg/kg/injection, schedule: Q04DX003 (ip), vehicle: saline): 212 % of control | T/C (endpoint: mean survival time, dose: 120.0 mg/kg/injection, schedule: Q04DX003 (ip), vehicle: water): 235 % of control | T/C (endpoint: mean survival time, dose: 160.0 mg/kg/injection, schedule: Q01DX009 (ip), vehicle: saline): 94 % of control | T/C (endpoint: mean survival time, dose: 160.0 mg/kg/injection, schedule: Q04DX003 (ip), vehicle: saline): 308 % of control | T/C (endpoint: mean survival time, dose: 180.0 mg/kg/injection, schedule: Q01DX001 (ip), vehicle: saline): 215 % of control | T/C (endpoint: mean survival time, dose: 200.0 mg/kg/injection, schedule: Q01DX001 (ip), vehicle: DMSO): 211 % of control and 400 % of control and 407 % of control | T/C (endpoint: mean survival time, dose: 200.0 mg/kg/injection, schedule: Q01DX001 (ip), vehicle: other): 294 % of control | T/C (endpoint: mean survival time, dose: 200.0 mg/kg/injection, schedule: Q01DX005 (ip), vehicle: water): 86 % of control | T/C (endpoint: mean survival time, dose: 200.0 mg/kg/injection, schedule: Q## X001 (ip), vehicle: saline): 248 % of control | T/C (endpoint: mean survival time, dose: 250.0 mg/kg/injection, schedule: Q01DX001 (ip), vehicle: Klucel (hydroxypropylcellulose) (HPC)): 223 % of control and 290 % of control | T/C (endpoint: mean survival time, dose: 250.0 mg/kg/injection, schedule: Q01DX001 (ip), vehicle: saline with Tween-80): 321 % of control | T/C (endpoint: mean survival time, dose: 267.0 mg/kg/injection, schedule: Q01DX001 (ip), vehicle: saline): 507 % of control | T/C (endpoint: mean survival time, dose: 280.0 mg/kg/injection, schedule: Q01DX001 (ip), vehicle: saline): 236 % of control | T/C (endpoint: mean survival time, dose: 300.0 mg/kg/injection, schedule: Q01DX001 (ip), vehicle: water): 216 % of control and 248 % of control (2×) | T/C (endpoint: mean survival time, dose: 400.0 mg/kg/injection, schedule: Q01DX001 (ip), vehicle: DMSO): 232 % of control and 626 % of control and 653 % of control | T/C (endpoint: mean survival time, dose: 400.0 mg/kg/injection, schedule: Q01DX001 (ip), vehicle: other): 282 % of control | T/C (endpoint: mean survival time, dose: 400.0 mg/kg/injection, schedule: Q## X001 (ip), vehicle: saline): 297 % of control | T/C (endpoint: mean survival time, dose: 450.0 mg/kg/injection, schedule: Q01DX001 (ip), vehicle: saline): 314 % of control | T/C (endpoint: median survival time, dose: 6.25 mg/kg/injection, schedule: Q01DX005 (ip), vehicle: saline): 107 % of control | T/C (endpoint: median survival time, dose: 10.0 mg/kg/injection, schedule: Q01DX009 (ip), vehicle: water): 107 % of control | T/C (endpoint: median survival time, dose: 12.5 mg/kg/injection, schedule: Q01DX005 (ip), vehicle: saline): 110 % of control | T/C (endpoint: median survival time, dose: 16.2 mg/kg/injection, schedule: Q10HX004 (ip), vehicle: saline): 102 % of control | T/C (endpoint: median survival time, dose: 25.0 mg/kg/injection, schedule: Q01DX001 (ip), vehicle: saline): 111 % of control | T/C (endpoint: median survival time, dose: 25.0 mg/kg/injection, schedule: Q01DX001 (ip), vehicle: water): 111 % of control | T/C (endpoint: median survival time, dose: 27.0 mg/kg/injection, schedule: Q10HX004 (ip), vehicle: saline): 106 % of control | T/C (endpoint: median survival time, dose: 50.0 mg/kg/injection, schedule: Q03DX003 (ip), vehicle: saline): 233 % of control | T/C (endpoint: median survival time, dose: 100.0 mg/kg/injection, schedule: Q01DX005 (ip), vehicle: saline): 317 % of control | T/C (endpoint: median survival time, dose: 100.0 mg/kg/injection, schedule: Q03DX003 (ip), vehicle: saline): 555 % of control | T/C (endpoint: median survival time, dose: 100.0 mg/kg/injection, schedule: Q07DX003 (sc), vehicle: saline): 226 % of control and 237 % of control | T/C (endpoint: median survival time, dose: 108.0 mg/kg/injection, schedule: Q01DX001 (ip), vehicle: saline): 98 % of control | T/C (endpoint: median survival time, dose: 125.0 mg/kg/injection, schedule: Q01DX001 (ip), vehicle: water): 289 % of control | T/C (endpoint: median survival time, dose: 125.0 mg/kg/injection, schedule: Q10HX004 (ip), vehicle: saline): 233 % of control | T/C (endpoint: median survival time, dose: 140.0 mg/kg/injection, schedule: Q07DX003 (ip), vehicle: saline): 295 % of control | T/C (endpoint: median survival time, dose: 150.0 mg/kg/injection, schedule: Q07DX003 (sc), vehicle: saline): 297 % of control and 312 % of control | T/C (endpoint: median survival time, dose: 180.0 mg/kg/injection, schedule: Q01DX001 (ip), vehicle: saline): 103 % of control | T/C (endpoint: median survival time, dose: 180.0 mg/kg/injection, schedule: Q01DX001 (iv), vehicle: saline): 214 % of control | T/C (endpoint: median survival time, dose: 200.0 mg/kg/injection, schedule: Q07DX003 (ip), vehicle: saline): 287 % of control | T/C (endpoint: median survival time, dose: 225.0 mg/kg/injection, schedule: Q01DX001 (ip), vehicle: saline): 410 % of control | T/C (endpoint: median survival time, dose: 225.0 mg/kg/injection, schedule: Q07DX003 (sc), vehicle: saline): 356 % of control and 357 % of control | T/C (endpoint: median survival time, dose: 250.0 mg/kg/injection, schedule: Q01DX001 (ip), vehicle: water): 361 % of control and 523 % of control | T/C (endpoint: median survival time, dose: 260.0 mg/kg/injection, schedule: Q07DX003 (ip), vehicle: saline): 306 % of control | T/C (endpoint: median survival time, dose: 275.0 mg/kg/injection, schedule: Q01DX001 (ip), vehicle: saline): 410 % of control | T/C (endpoint: median survival time, dose: 300.0 mg/kg/injection, schedule: Q01DX001 (iv), vehicle: saline): 388 % of control | T/C (endpoint: median survival time, dose: 400.0 mg/kg/injection, schedule: Q01DX001 (ip), vehicle: water): 89 % of control | T/C (endpoint: median survival time, dose: 450.0 mg/kg/injection, schedule: Q01DX001 (ip), vehicle: saline): 211 % of control | T/C (endpoint: median survival time, dose: 500.0 mg/kg/injection, schedule: Q01DX001 (ip), vehicle: water): 523 % of control | T/C (endpoint: median survival time, dose: 500.0 mg/kg/injection, schedule: Q01DX001 (iv), vehicle: saline): 100 % of control
